# Data published in PubChem BioAssay AID662 (National Center for Advancing Translational Sciences (NCATS), 2007).
# Values joined by “and” are separate entries in the source; they are usually repeats but may differ in a detail not shown here. Equal values may be shown once. In all, about 71,000 compounds went through this assay and about 1,800 (2.5%) were called active. This list was built around the results that the source calls inconclusive (neither active nor inactive); the mix of calls is not that of the screen. The call rests on the fitted dose curve; in most records, active means well fitted activation curve with a large enough effect in the signal ratio, with a control signal flat (not every such curve was filed as active); inconclusive means small, poorly fitted or top-dose-only effect, or effect the other way, or a change in a side signal; inactive means flat fitted curve, though single readings scatter; the % refers to the signal ratio. A potency beside an inconclusive call is a rough fit, not a confirmed value.
# Experiment: Cell signaling CRE-BLA (Fsk stim); on activity change, negative = inhibition: % of control where 0% means no effect
# Conditions: CHO CRE-bla reporter (cAMP response element driving beta-lactamase), forskolin EC10, beta-lactamase ratio
# Method in brief: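 CRE-bla CHO cells stimulated with EC10 NKH 477 (water-soluble forskolin) and compound titrations, 3 h at 37C; beta-lactamase read with CCF4 after 2 h at room temperature. Activity from 460/530 nm emission ratio, AC50 values for positive or negative modulation.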
# [1] = activity change, negative = inhibition: at 38.2 µM (top of the series) unless noted
# Potency means the concentration at half of the fitted maximal effect; tags describe the fitted curve by direction and shape.
compound,measurement,setting,value
Cc1ccccc1-c1cc(Nc2ccc(F)cc2)ncn1,Potency,[1],"inconclusive: 15.8 µM [rising, partial curve]"
Cc1nc2ccccc2c2oc(C(=O)NCC3CCCO3)cc12 (centres undefined),Potency,[1],"inconclusive: 6.31 µM [rising, partial curve]"
COc1ccccc1N1CCN(C(c2cccs2)C(C)NC(=O)c2cccs2)CC1 (centres undefined),"activity change, negative = inhibition",[1],inconclusive: -0.711%
CCOC(=O)C1CCCN(C(=O)c2cc3c(-c4cccc(OC)c4)nn(C)c3s2)C1 (centres undefined),Potency,[1],active: 3.16 µM
CCC(C(=O)NC1CCCC1)N(C(=O)Cn1nnc(-c2ccc(OC)c(OC)c2)n1)C1CCCCC1 (centres undefined),Potency,[1],"inconclusive: 7.94 µM [rising, partial curve]"
CCC1CCc2c(sc(NC(=O)c3ccoc3C)c2C(N)=O)C1 (centres undefined),Potency,[1],active: 10 µM
Cc1csc2nc(CSc3ccc(Cl)cc3)cn12,"activity change, negative = inhibition",[1],inactive
CC/C(=C(/CC)c1ccc(O)cc1)c1ccc(O)cc1,"activity change, negative = inhibition",[1],inactive
COc1ccc2nc3sc(C(=O)NCc4cccs4)c(N)c3cc2c1,"activity change, negative = inhibition",[1],inactive
Cc1cc(C(=O)NCc2cccnc2)n(-c2ccccc2)n1,"activity change, negative = inhibition",[1],inactive
COc1ccc(OC)c(-c2cc(C(=O)NCc3ccco3)no2)c1,Potency,[1],"inconclusive: 10 µM [rising, partial curve]"
O=C1c2ccccc2C(=O)N1CCCC(=O)N1CCc2ccccc21,"activity change, negative = inhibition",[1],inconclusive: -16.2% [at 7.6 µM]
Cc1noc(C)c1COc1cccc(C(=O)OCC(=O)N2CC(=O)Nc3ccccc32)c1,"activity change, negative = inhibition",[1],inconclusive: 28.1%
CCCn1c(N)c(Sc2ccc(Cl)cc2)c(=O)n(CCC)c1=O,"activity change, negative = inhibition",[1],inactive
CC(C)C[C@@H](CC(=O)N[C@@H](CCCN)CC(=O)N[C@@H]1CCNC[C@H]1C(=O)N[C@H](CC(=O)N[C@@H](CCC(=O)O)CC(=O)O)Cc1ccccc1)NC(=O)[C@@H]1CNCC[C@H]1N,"activity change, negative = inhibition",[1],inactive
CC(C)(Sc1ccc(CCN(CCCCC2CCCCC2)C(=O)NC2CCCCC2)cc1)C(=O)O,"activity change, negative = inhibition",[1],inconclusive: 2.84% [cytotoxic] and inconclusive: 8.62%
COc1ccc(C(=O)NCCn2ccc3ccccc32)c(OC)c1,"activity change, negative = inhibition",[1],inactive
CCOC(=O)c1c(N)sc2c1CCC(C)C2 (centres undefined),"activity change, negative = inhibition",[1],inactive: 7.81% [at 7.6 µM]
COc1ccc(C)c(Cn2c(-c3nonc3N)nc3ccccc32)c1,Potency,[1],"inconclusive: 6.31 µM [rising, partial curve]"
CCc1cc2c(N3CCCCC3)ncnc2s1,Potency,[1],"inconclusive: 3.16 µM [rising, partial curve]"
Cc1cc(C)c2c(N)c(S(=O)(=O)Cc3ccccc3)sc2n1,"activity change, negative = inhibition",[1],inactive
CCOC(=O)c1cccc(NC(=O)CSc2nnc(C3CCCCC3)n2CC)c1,"activity change, negative = inhibition",[1],inconclusive: -13.9%
Cc1cccc(CCNC(=O)c2nnc(Cc3ccc(Cl)cc3)o2)c1,"activity change, negative = inhibition",[1],inactive
CCCC(=O)Nc1ccccc1NC(=O)C1CCCCC1,"activity change, negative = inhibition",[1],inactive
CC(C)CC(=O)Nc1ccc2oc(-c3cccnc3)nc2c1,Potency,[1],"inconclusive: 1 µM [rising, partial curve]"
C=CCn1c(-c2cccs2)nc2nc3ccccc3nc21,Potency,[1],active: 10 µM
NCCNS(=O)(=O)c1cccc2cnccc12,"activity change, negative = inhibition",[1],inconclusive: -17%
same,"activity change, negative = inhibition",at 38.2 µM (top of the series),inactive: -12.1%
CN(C)C(=O)CCc1nc(-c2ccc(C(C)(C)C)cc2)no1,"activity change, negative = inhibition",[1],inconclusive: 1.13%
Cc1ccccc1OCC(=O)Nc1ccc2c(c1)OCO2,"activity change, negative = inhibition",[1],inconclusive: -7.8%
CCOc1ccccc1C(=O)NCCC(=O)O,"activity change, negative = inhibition",[1],inactive
CCC(C)(C)n1nnnc1CN(Cc1cccs1)Cc1cc2cc(OC)ccc2[nH]c1=O,Potency,[1],"inconclusive: 10 µM [rising, partial curve]"
CCCc1cc(=O)[nH]c(SCC)n1,Potency,[1],"inconclusive: 15.8 µM [rising, partial curve, poor fit]"
Cc1nn(-c2ccccn2)c2nc(-c3cccs3)cc(C(=O)N3CCOCC3)c12,Potency,[1],active: 3.16 µM
Cc1cnc(CNc2ncnc3ccc(-c4ccccc4C#N)cc23)cn1,"activity change, negative = inhibition",[1],inactive
CCCCCn1c(=O)[nH]c2cc(C(=O)NCCN(CC)CC)ccc2c1=O,"activity change, negative = inhibition",[1],inactive
O=C(c1ccco1)N1CCN(c2nc(C3CC3)nc3sc4c(c23)CCCC4)CC1,Potency,[1],"inconclusive: 25.1 µM [falling, single point]"
CN(Cc1ccco1)c1ncnc2ccc(-c3ccccc3C#N)cc12,Potency,[1],active: 2 µM
COc1ccc2nc(NC(=O)C3CCCN(S(=O)(=O)c4cccc5nonc45)C3)sc2c1 (centres undefined),Potency,[1],"inconclusive: 25.1 µM [rising, single point]"
Cn1c(C(=O)NCC2CCCO2)cc2c(=O)[nH]c3ccccc3c21 (centres undefined),Potency,[1],"inconclusive: 12.6 µM [rising, single point]"
C=C(C)COc1ccc(-c2[nH]ncc2Oc2ccccc2OCC)c(O)c1,Potency,[1],"inconclusive: 20 µM [rising, single point]"
CCOC(=O)c1c(C)[nH]c(C(C)=O)c1C,Potency,[1],"inconclusive: 12.6 µM [rising, single point]"
O=C(NCc1ccccc1)N[C@@H](Cc1ccccc1)C(=O)O,Potency,[1],"inconclusive: 25.1 µM [rising, single point]"
COC(=O)c1cccc(NC(=O)CSc2nnc(C)n2Cc2ccccc2)c1,"activity change, negative = inhibition",[1],inactive
CCNc1ncc2nc(-c3ccccc3)c(=O)n(CCc3ccccc3)c2n1,Potency,[1],"inconclusive: 1.26 µM [rising, full curve]"
Cc1c(C(=O)N2CCOCC2)[nH]c2c1C(=O)CC(c1ccccc1Cl)C2 (centres undefined),Potency,[1],"inconclusive: 0.02 µM [rising, full curve, poor fit]"
Cc1ccc(-c2nnn(CC(=O)NCCc3ccc4c(c3)OCO4)n2)o1,"activity change, negative = inhibition",[1],inconclusive: -8.64%
N#Cc1cccc(NC(=O)N2CC3(CCN(C(=O)c4cnccn4)CC3)C2)c1,"activity change, negative = inhibition",[1],inactive
O=c1[nH]c2cc3c(cc2cc1C(c1nnnn1C1CCCC1)N1CCCc2ccccc21)OCCO3 (centres undefined),"activity change, negative = inhibition",[1],inactive
NC(=O)[C@@H]1CCCN1Cc1ccc2c(c1)OCO2,"activity change, negative = inhibition",[1],inactive: -3.58% [at 7.6 µM]
Cc1csc(NC(=O)CSc2nc(C)nc3c2c(=O)n(C)c(=O)n3C)n1,Potency,[1],active: 1.58 µM
COCCNc1nc(-c2ccccc2CN(C)C)nc2ccccc12,Potency,[1],"inconclusive: 25.1 µM [rising, single point]"
COc1ccc(C(=O)CSc2cc(C)nc3nc(C)nn23)cc1OC,Potency,[1],"inconclusive: 10 µM [rising, partial curve]"
CCOC(=O)CSc1nc2sc(C)c(C)c2c(=O)[nH]1,Potency,[1],"inconclusive: 0.126 µM [rising, full curve, poor fit]"
COc1ccc(-c2onc(C)c2-c2ccc(C(=O)OC(C)C)o2)c(O)c1,Potency,[1],"inconclusive: 5.01 µM [falling, single point]"
CCN1CCN(C(=O)c2nn(-c3ccc(OC)cc3)c(=O)c3c2c2ccccc2n3C)CC1,"activity change, negative = inhibition",[1],inconclusive: 10.3%
Oc1ccccc1-c1nc(NCC2CCCO2)c2ccccc2n1 (centres undefined),Potency,[1],"inconclusive: 25.1 µM [falling, single point]"
CC(C)CN1CCCC2(CCN(C(=O)c3cnccn3)CC2)C1,"activity change, negative = inhibition",[1],inactive
Cn1c(=O)c2[nH]c(CSCc3ccccc3)nc2n(C)c1=O,"activity change, negative = inhibition",[1],inactive: 5.46% [at 7.6 µM]
CC(C)(C)c1ccc(NC(=O)NCc2ccco2)cc1,"activity change, negative = inhibition",[1],inconclusive: 21.8% [at 7.6 µM]
CCOCCCNC(=O)C(NC(=O)C1CCC(=O)N1)c1ccc(C)cc1 (centres undefined),Potency,[1],"inconclusive: 3.16 µM [rising, full curve, poor fit]"
CCC(CC)C(=O)Nc1ccccc1NC(C)=O,"activity change, negative = inhibition",[1],inactive
Cc1cc2ccccc2c(=O)n1CC(=O)NC1CCCCCC1,"activity change, negative = inhibition",[1],inactive
COc1cc(NS(=O)(=O)c2ccc(Br)cc2)c(OC)cc1NC(=O)c1ccco1,Potency,[1],"inconclusive: 12.6 µM [rising, partial curve]"
CC1=C(C(=O)OCc2ccccc2)C(C2CCCCC2)NC(=O)N1CCCCCC(=O)O (centres undefined),Potency,[1],"inconclusive: 10 µM [rising, partial curve]"
O=C(Nc1cc(C(F)(F)F)ccc1N1CCOCC1)C1Cc2ccccc2CN1C(=O)c1ccco1 (centres undefined),Potency,[1],"inconclusive: 1.58 µM [falling, full curve]"
COc1cc2c(cc1OC)C(c1ccccc1)N(C(=O)c1ccco1)CC2 (centres undefined),Potency,[1],"inconclusive: 6.31 µM [rising, partial curve]"
O=C(CCC1COc2ccccc2O1)Nc1ccc(Cl)cn1 (centres undefined),Potency,[1],"inconclusive: 25.1 µM [falling, single point]"
O=C(CSc1ccc(-c2ccccc2)nn1)N1CCOCC1,"activity change, negative = inhibition",[1],inactive
O=C(O)c1ccc([N+](=O)[O-])c(P(=O)(O)O)c1,"activity change, negative = inhibition",[1],inactive: 1.85% [at 7.6 µM]
O=C(COC(=O)c1cc(S(=O)(=O)N2CCOCC2)ccc1O)NCC1CCCO1 (centres undefined),"activity change, negative = inhibition",[1],inactive
COc1ccc(-n2nnc3c(=O)n(CC(=O)NCC4CCCO4)cnc32)cc1 (centres undefined),"activity change, negative = inhibition",[1],inconclusive: 13%
COCCn1c(=O)c(-c2ccc(F)cc2)nc2cnc(OC)nc21,Potency,[1],"inconclusive: 10 µM [rising, single point]"
COc1ccc(C(=O)NC(=O)CSc2nnc(-c3ccco3)n2-c2ccccc2)cc1,"activity change, negative = inhibition",[1],inconclusive: -9.72%
CCOc1ccc(-c2cc(C(=O)N3CCN(c4ccccn4)CC3)c3ccccc3n2)cc1,"activity change, negative = inhibition",[1],inactive
O=S(=O)(c1cccc2ccccc12)N1CCSC1,"activity change, negative = inhibition",[1],inconclusive: -8.94%
CC(C)C[C@@H](CC(=O)N[C@@H](CCCN)CC(=O)N[C@@H]1CCNC[C@H]1C(=O)N[C@H](CC(=O)N[C@@H](CCC(=O)O)CC(=O)O)CC(C)C)NC(=O)[C@@H]1CCCC[C@H]1N,"activity change, negative = inhibition",[1],inconclusive: -10.1%
CCOC(=O)Nc1sc2c(c1C#N)CCC(C)C2 (centres undefined),Potency,[1],"inconclusive: 10 µM [rising, partial curve]"
CCOC(=O)COc1ccc2c3c(c(=O)oc2c1C)CCC3,"activity change, negative = inhibition",[1],inconclusive: 20.8%
